# According to a collection of fitness landscapes (doi:10.1016/j.celrep.2020.107928):
# Whole data set: some 81,000 sequences, median “one-hybrid fitness for binding NBS DNA” near -0.1, cut for the highest 2% near 0.36. The list shows a part of the results.
# B1: Caulobacter ParB omega fusion; a variant is named by its letters at X, in order, B8GW30 (parent)
# chain: MESVVVGEPGMSEGRRGLGRGLSALLGEVDAAPAQAPGEQLGGSREAPIEILQRNPDQPRRTFREEDLEDLSNSIREKGVLQPILVRPSPDTAGEYQIVAGERAWRAAQRAGLKTVPIMVRELDDLAVLEIGIIENVQRADLNVLEEALSYKVLMEKFERTQENIAQTIGKSXSHVANXMRLLXLPDEVQSYLVSGELTAXHARAIAAAADPVALAKQIIEGGLSVRETEALARKAPNLSAGKSKGGRPPRVKDTDTQALESDLSSVLGLDVSIDHRGSTGTLTITYATLEQLDDLCNRLTRGI
# Variants of: B1
# Assay: one-hybrid fitness for binding NBS DNA (the Noc-binding site; scaled: cognate 1, non-cognate 0); higher = stronger binding
# Conditions: with NBS DNA site
# Summary of the method: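 Selection: bacterial one-hybrid in E. coli USO, HIS3 reporter with the site 19 bp from the promoter, 48 hours at 37°C on M9-minus-histidine plus 0.1 mM IPTG and 5 mM 3-AT. Libraries were Caulobacter ParB with four randomised specificity codons, sequenced on Illumina before and after selection. Fitness is the rescaled log change in variant-to-wild-type read ratio, anchored to the cognate and non-cognate sites.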
row,Variant,one-hybrid fitness for binding NBS DNA
1,VAYT,≤ 0.2
2,IPKL,≤ 0.2
3,LGYT,≤ 0.2
4,RPYF,≤ 0.2
5,RRSP,≤ 0.2
6,QKLV,≤ 0.2
7,LEGL,≤ 0.2
8,THSN,≤ 0.2
9,VFLK,≤ 0.2
10,HPTY,≤ 0.2
11,SWHC,≤ 0.2
12,SRST,≤ 0.2
13,LEYR,≤ 0.2
14,WFAC,≤ 0.2
15,LMTD,≤ 0.2
16,HRMA,≤ 0.2
17,MDQW,≤ 0.2
18,GYQL,≤ 0.2
19,NYDS,≤ 0.2
20,PANK,≤ 0.2
21,AMPY,≤ 0.2
22,FVCG,≤ 0.2
23,RNDA,≤ 0.2
24,QPML,≤ 0.2

row,Variant,one-hybrid fitness for binding NBS DNA
1,SPRF,≤ 0.2
2,FHVS,≤ 0.2
3,LIMC,≤ 0.2
4,AECC,≤ 0.2
5,YTTI,≤ 0.2
6,VNAW,≤ 0.2
7,EHMS,≤ 0.2
8,LKRF,≤ 0.2
9,DIKV,≤ 0.2
10,FGRT,≤ 0.2
11,PGGW,≤ 0.2
12,VQMS,≤ 0.2
13,QSFN,≤ 0.2
14,DHKG,≤ 0.2
15,EPQR,≤ 0.2
16,ESAG,≤ 0.2
17,GHTW,≤ 0.2
18,IRSM,≤ 0.2
19,HIFS,≤ 0.2
20,HMQC,≤ 0.2
21,FSDS,≤ 0.2
22,EFIS,≤ 0.2
23,VTTW,≤ 0.2
24,QFQY,≤ 0.2

row,Variant,one-hybrid fitness for binding NBS DNA
1,QYNR,0.599
2,HYSV,≤ 0.2
3,LCDR,≤ 0.2
4,DTWL,≤ 0.2
5,CVSD,≤ 0.2
6,WSYE,≤ 0.2
7,RDAS,≤ 0.2
8,CMPC,≤ 0.2
9,HDQR,≤ 0.2
10,DSDF,≤ 0.2
11,DHHT,≤ 0.2
12,NGAK,≤ 0.2
13,HKPG,≤ 0.2
14,VDIR,≤ 0.2
15,RLGF,≤ 0.2
16,IIGA,≤ 0.2
17,YRIC,≤ 0.2
18,FIVI,≤ 0.2
19,PGCS,≤ 0.2
20,AVMC,≤ 0.2
21,ERRG,≤ 0.2
22,RFYN,≤ 0.2
23,WFNG,≤ 0.2
24,WRYW,≤ 0.2

row,Variant,one-hybrid fitness for binding NBS DNA
1,WKDS,≤ 0.2
2,QNGE,≤ 0.2
3,APPN,≤ 0.2
4,QFNN,≤ 0.2
5,VSLP,≤ 0.2
6,PTYT,≤ 0.2
7,KVDP,≤ 0.2
8,SFQR,0.363
9,MHTF,≤ 0.2
10,SVKC,≤ 0.2
11,EYAY,≤ 0.2
12,SMLH,≤ 0.2
13,WCDC,≤ 0.2
14,ESGC,≤ 0.2
15,EHLT,≤ 0.2
16,AKSL,≤ 0.2
17,PMTH,≤ 0.2
18,AMLW,≤ 0.2
19,HMQV,≤ 0.2
20,RWVM,0.413
21,FIRS,≤ 0.2
22,YKFL,≤ 0.2
23,HPLD,≤ 0.2
24,GAFG,≤ 0.2

row,Variant,one-hybrid fitness for binding NBS DNA
1,QIYT,0.335
2,NNKS,≤ 0.2
3,YVDV,≤ 0.2
4,PAPF,≤ 0.2
5,GASE,≤ 0.2
6,HKKQ,≤ 0.2
7,EMVC,≤ 0.2
8,NCTA,≤ 0.2
9,QQVR,0.491
10,KGLT,≤ 0.2
11,SRYT,≤ 0.2
12,TSEF,≤ 0.2
13,VATC,≤ 0.2
14,RRSY,0.393
15,RVTH,≤ 0.2
16,IRHW,≤ 0.2
17,KQMG,≤ 0.2
18,GFVP,≤ 0.2
19,YKMR,≤ 0.2
20,NPVW,≤ 0.2
21,TRQK,≤ 0.2
22,TGLL,≤ 0.2
23,CPRP,≤ 0.2
24,TQHA,≤ 0.2

row,Variant,one-hybrid fitness for binding NBS DNA
1,ARHQ,≤ 0.2
2,GSHT,≤ 0.2
3,QLGA,≤ 0.2
4,MQDG,≤ 0.2
5,RFKI,≤ 0.2
6,AKEE,≤ 0.2
7,PNKF,≤ 0.2
8,PFTN,≤ 0.2
9,DNDW,≤ 0.2
10,TTHN,≤ 0.2
11,RVCS,0.444
12,AITT,≤ 0.2
13,KSKL,≤ 0.2
14,CCQR,≤ 0.2
15,NIQS,≤ 0.2
16,FYTL,≤ 0.2
17,NIRT,≤ 0.2
18,QHNK,≤ 0.2
19,RDQC,≤ 0.2
20,DSRA,≤ 0.2
21,TQPT,≤ 0.2
22,YIVW,≤ 0.2
23,NEWG,≤ 0.2
24,EMQT,≤ 0.2

row,Variant,one-hybrid fitness for binding NBS DNA
1,TVKY,≤ 0.2
2,MHES,≤ 0.2
3,DACG,≤ 0.2
4,SKNC,≤ 0.2
5,RNSW,≤ 0.2
6,SPRD,≤ 0.2
7,LRVG,≤ 0.2
8,TGQT,≤ 0.2
9,NDIT,≤ 0.2
10,PQQE,≤ 0.2
11,CGPG,≤ 0.2
12,TETG,≤ 0.2
13,RGCR,≤ 0.2
14,SPFQ,≤ 0.2
15,PENW,≤ 0.2
16,CDCR,≤ 0.2
17,STVI,≤ 0.2
18,TAND,≤ 0.2
19,MCSP,≤ 0.2
20,RTHC,≤ 0.2
21,QPVK,≤ 0.2
22,PWMD,≤ 0.2
23,YYVC,≤ 0.2
24,PAFL,≤ 0.2

row,Variant,one-hybrid fitness for binding NBS DNA
1,VMGC,≤ 0.2
2,NYNS,≤ 0.2
3,DAAG,≤ 0.2
4,VVPD,≤ 0.2
5,KYQS,≤ 0.2
6,YVTH,≤ 0.2
7,ATQV,≤ 0.2
8,CQAY,≤ 0.2
9,NYRD,≤ 0.2
10,YVTN,≤ 0.2
11,IPDV,≤ 0.2
12,DLST,≤ 0.2
13,DNDV,≤ 0.2
14,SIYY,≤ 0.2
15,RCYP,≤ 0.2
16,HDDR,≤ 0.2
17,TVQN,≤ 0.2
18,AFMM,≤ 0.2
19,MTKA,≤ 0.2
20,CVLE,≤ 0.2
21,RCRI,≤ 0.2
22,GMHY,≤ 0.2
23,EGGR,≤ 0.2
24,HSWS,≤ 0.2

row,Variant,one-hybrid fitness for binding NBS DNA
1,QQGL,≤ 0.2
2,AKTI,≤ 0.2
3,TETT,≤ 0.2
4,EICG,≤ 0.2
5,FSWC,≤ 0.2
6,DQSN,≤ 0.2
7,QKKR,1
8,DLYE,≤ 0.2
9,PMPG,≤ 0.2
10,RPHL,≤ 0.2
11,VYHR,≤ 0.2
12,QGGS,≤ 0.2
13,DTGG,≤ 0.2
14,KHQD,≤ 0.2
15,PVKA,≤ 0.2
16,RPNY,≤ 0.2
17,MTKR,0.259
18,LLPT,≤ 0.2
19,CYYP,≤ 0.2
20,RATF,≤ 0.2
21,KPCR,≤ 0.2
22,NCRT,≤ 0.2
23,LHPN,≤ 0.2
24,PAKN,≤ 0.2

row,Variant,one-hybrid fitness for binding NBS DNA
1,QPRE,≤ 0.2
2,QYAL,≤ 0.2
3,GMLL,≤ 0.2
4,PPQC,≤ 0.2
5,RLPS,≤ 0.2
6,SQPW,≤ 0.2
7,PVPM,≤ 0.2
8,LLCI,≤ 0.2
9,HNHN,≤ 0.2
10,KCRL,≤ 0.2
11,LTFR,≤ 0.2
12,LQHD,≤ 0.2
13,WMRI,≤ 0.2
14,HSMY,≤ 0.2
15,TFFG,≤ 0.2
16,TTSQ,≤ 0.2
17,DRQY,≤ 0.2
18,HDLG,≤ 0.2
19,GSVG,≤ 0.2
20,DTTM,≤ 0.2
21,TAVW,≤ 0.2
22,HGNG,≤ 0.2
23,ATKT,≤ 0.2
24,FSTE,≤ 0.2

row,Variant,one-hybrid fitness for binding NBS DNA
1,RIMA,≤ 0.2
2,IYMT,≤ 0.2
3,VSKV,≤ 0.2
4,SVTW,≤ 0.2
5,ASWR,≤ 0.2
6,CCHG,≤ 0.2
7,RLKP,≤ 0.2
8,KRCN,≤ 0.2
9,HPLR,≤ 0.2
10,HTTG,≤ 0.2
11,WVPV,≤ 0.2
12,CHVR,≤ 0.2
13,HRVP,≤ 0.2
14,PTNL,≤ 0.2
15,SDGY,≤ 0.2
16,PVKS,≤ 0.2
17,WDTY,≤ 0.2
18,RASP,≤ 0.2
19,RATD,≤ 0.2
20,THYV,≤ 0.2
21,ATPC,≤ 0.2
22,YYTI,≤ 0.2
23,PHYM,≤ 0.2
24,HRRH,≤ 0.2

row,Variant,one-hybrid fitness for binding NBS DNA
1,NNPV,≤ 0.2
2,YPEL,≤ 0.2
3,PEPH,≤ 0.2
4,RYTK,≤ 0.2
5,KKGS,≤ 0.2
6,RQFI,≤ 0.2
7,FKHM,≤ 0.2
8,HIIR,≤ 0.2
9,PFHY,≤ 0.2
10,ACDK,≤ 0.2
11,LEKF,≤ 0.2
12,QFAS,≤ 0.2
13,VDMR,≤ 0.2
14,PCGY,≤ 0.2
15,GSSC,≤ 0.2
16,DWLR,≤ 0.2
17,EITM,≤ 0.2
18,VSEC,≤ 0.2
19,TAGA,≤ 0.2
20,WKRC,≤ 0.2
21,HKAA,≤ 0.2
22,RKRW,≤ 0.2
23,DYWG,≤ 0.2
24,SFRA,≤ 0.2

row,Variant,one-hybrid fitness for binding NBS DNA
1,PNCA,≤ 0.2
2,KTVM,≤ 0.2
3,TEHL,≤ 0.2
4,QAKS,0.618
5,CSPA,≤ 0.2
6,TDLR,≤ 0.2
7,DDNI,≤ 0.2
8,NTSA,≤ 0.2
9,DFRR,≤ 0.2
10,YVYG,≤ 0.2
11,HMCW,≤ 0.2
12,ANFC,≤ 0.2
13,QFNV,≤ 0.2
14,TMAD,≤ 0.2
15,GCRG,≤ 0.2
16,MWGR,≤ 0.2
17,QCNG,≤ 0.2
18,LPSN,≤ 0.2
